# The supplement of paper PMC8728848
# The other results are listed elsewhere or left out.
# Legend:
# Assay in all cases: glycan array binding signal (z-score within array); higher = stronger binding
# Details in all cases: glycan notation: IUPAC condensed, linker removed
# [1] = molecular target: Gal(b1-4)GlcNAc(b1-2)Man(a1-3)[Gal(b1-4)GlcNAc(b1-2)Man(a1-6)]Man(b1-4)GlcNAc(b1-4)GlcNAc
# Outline: (§1)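 The binding signal is a Z-score computed within each array. Data were drawn from 3228 arrays in the Consortium for Functional Glycomics database, restricted to those with a known protein sequence. Scores were averaged over arrays of the same protein sequence at different concentrations or buffers, and over linkers, and negative values can be taken as non-binding.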
# [2] = molecular target: Gal(b1-4)GlcNAc(b1-2)Man(a1-3)[Gal(b1-4)GlcNAc(b1-2)Man(a1-6)]Man(b1-4)GlcNAc(b1-4)[Fuc(a1-6)]GlcNAc
# Outline: as §1
# [3] = molecular target: Gal(b1-4)GlcNAc(b1-2)Man(a1-3)[Gal(b1-4)GlcNAc(b1-2)Man(a1-6)][Gal(b1-4)GlcNAc(b1-4)]Man(b1-4)GlcNAc(b1-4)[Fuc(a1-6)]GlcNAc
# Outline: as §1
# [4] = molecular target: Gal(b1-4)GlcNAc(b1-2)Man(a1-3)[Gal(b1-4)GlcNAc(b1-2)Man(a1-6)][GlcNAc(b1-4)]Man(b1-4)GlcNAc(b1-4)[Fuc(a1-6)]GlcNAc
# Outline: as §1
# [5] = molecular target: Gal(b1-4)GlcNAc(b1-2)Man(a1-3)[GlcNAc(b1-2)Man(a1-6)]Man(b1-4)GlcNAc(b1-4)GlcNAc
# Outline: as §1
# [6] = molecular target: Gal(b1-4)GlcNAc(b1-2)Man(a1-3)[GlcNAc(b1-4)][Gal(b1-4)GlcNAc(b1-2)Man(a1-6)]Man(b1-4)GlcNAc(b1-4)GlcNAc
# Outline: as §1
# [7] = molecular target: Gal(b1-4)GlcNAc(b1-2)Man(a1-3)[Man(a1-6)]Man(b1-4)GlcNAc(b1-4)GlcNAc
# Outline: as §1
# [8] = molecular target: Gal(b1-4)GlcNAc(b1-2)Man(a1-6)Man(b1-4)GlcNAc(b1-4)GlcNAc
# Outline: as §1
# [9] = molecular target: Gal(b1-4)GlcNAc(b1-2)Man(a1-6)[GlcNAc(b1-2)Man(a1-3)]Man(b1-4)GlcNAc(b1-4)GlcNAc
# Outline: as §1
# [10] = molecular target: Gal(b1-4)GlcNAc(b1-2)Man(a1-6)[Man(a1-3)]Man(b1-4)GlcNAc(b1-4)GlcNAc
# Outline: as §1
# [11] = molecular target: Gal(b1-4)GlcNAc(b1-2)[Gal(b1-4)GlcNAc(b1-4)]Man(a1-3)[Gal(b1-4)GlcNAc(b1-2)Man(a1-6)]Man(b1-4)GlcNAc(b1-4)GlcNAc
# Outline: as §1
# [12] = molecular target: Gal(b1-4)GlcNAc(b1-2)[Gal(b1-4)GlcNAc(b1-4)]Man(a1-3)[Gal(b1-4)GlcNAc(b1-2)[Gal(b1-4)GlcNAc(b1-6)]Man(a1-6)]Man(b1-4)GlcNAc(b1-4)GlcNAc
# Outline: as §1
# [13] = molecular target: Gal(b1-4)GlcNAc(b1-2)[Gal(b1-4)GlcNAc(b1-4)]Man(a1-3)[GlcNAc(b1-4)][Gal(b1-4)GlcNAc(b1-2)Man(a1-6)]Man(b1-4)GlcNAc(b1-4)GlcNAc
# Outline: as §1
# [14] = molecular target: Gal(b1-4)GlcNAc(b1-2)[Gal(b1-4)GlcNAc(b1-4)]Man(a1-3)[GlcNAc(b1-4)][Gal(b1-4)GlcNAc(b1-2)[Gal(b1-4)GlcNAc(b1-6)]Man(a1-6)]Man(b1-4)GlcNAc(b1-4)GlcNAc
# Outline: as §1
# [15] = molecular target: Gal(b1-4)GlcNAc(b1-2)[Gal(b1-4)GlcNAc(b1-6)]Man(a1-6)[Gal(b1-4)GlcNAc(b1-2)Man(a1-3)]Man(b1-4)GlcNAc(b1-4)GlcNAc
# Outline: as §1
# [16] = molecular target: Gal(b1-4)GlcNAc(b1-2)[Gal(b1-4)GlcNAc(b1-6)]Man(a1-6)[Gal(b1-4)GlcNAc(b1-2)Man(a1-3)]Man(b1-4)GlcNAc(b1-4)[Fuc(a1-6)]GlcNAc
# Outline: as §1
# [17] = molecular target: Gal(b1-4)GlcNAc(b1-2)[Gal(b1-4)GlcNAc(b1-6)]Man(a1-6)[GlcNAc(b1-4)][Gal(b1-4)GlcNAc(b1-2)Man(a1-3)]Man(b1-4)GlcNAc(b1-4)GlcNAc
# Outline: as §1
# [18] = molecular target: Gal(b1-4)GlcNAc(b1-2)[Gal(b1-4)GlcNAc(b1-6)]Man(a1-6)[GlcNAc(b1-4)][Gal(b1-4)GlcNAc(b1-2)[Gal(b1-4)GlcNAc(b1-4)]Man(a1-3)]Man(b1-4)GlcNAc(b1-4)[Fuc(a1-6)]GlcNAc
# Outline: as §1
# [19] = molecular target: Gal(b1-4)GlcNAc(b1-3)Gal(b1-3)GalNAc
# Outline: as §1
binder,measurement,setting,value
Als3-41 (Candida albicans) (protein) KTITGVFNSFNSLTWSNAATYNYKGPGTPTWNAVLGWSLDGTSASPGDTFTLNMPCVFKFTTSQTSVDLTAHGVKYATCQFQAGEEFMTFSTLTCTVSNTLTPSIKALGTVTLPLAFNVGGTGSSVDLEDSKCFTAGTNTVTFNDGGKKISINVDFERSNVDPKGYLTDSRVIPSLNKVSTLFVAPQCANGYTSGTMGFANTYGDVQIDCSNIHVGITKGLNDWNYPVSSESFSYTKTCSSNGIFITYKNVPAGYRPFVDAYISATDVNSYTLSYANEYTCAGGYWQRAPFTLRWTGYRNSDAGSNGIVIVATTRTVTDSTTAVTTLPFDPNRDKTKTIEILKPIPTTTITTSYVGVTTSYLTKTAPIGETATVIVD,glycan array binding signal (z-score),[1],-0.27
same,glycan array binding signal (z-score),[2],0.725
same,glycan array binding signal (z-score),[3],-0.162
same,glycan array binding signal (z-score),[4],-0.306
same,glycan array binding signal (z-score),[5],-0.06
same,glycan array binding signal (z-score),[6],-0.325
same,glycan array binding signal (z-score),[7],-0.026
same,glycan array binding signal (z-score),[8],0.552
same,glycan array binding signal (z-score),[9],-0.102
same,glycan array binding signal (z-score),[10],-0.291
same,glycan array binding signal (z-score),[11],-0.251
same,glycan array binding signal (z-score),[12],-0.3
same,glycan array binding signal (z-score),[13],-0.351
same,glycan array binding signal (z-score),[14],-0.386
same,glycan array binding signal (z-score),[15],-0.306
same,glycan array binding signal (z-score),[16],1.31
same,glycan array binding signal (z-score),[17],-0.357
same,glycan array binding signal (z-score),[18],-0.29
same,glycan array binding signal (z-score),[19],-0.255
